Experimental data as given in patent US20220249679A1 (Mitsubishi Tanabe Pharma Corporation, priority 2018, published 2022).

Key:
[1] = system: HCC1806 cells implanted in a mouse; test: In vivo xenograft study, HCC1806; details: Nu/Nu mice, intravenous
Method: (§1) Briefly, immunodeficient female mice (strain:Nu/Nu) were inoculated subcutaneously with 5×10^6 An3CA or HCC1806 cells. Tumors were measured using digital calipers and the tumor volume was determined according to the formula 0.5236*L*W^2. […]

8505C cells = test: In vitro toxicity assay, 8505C; format: cell-based
[2] = system: An3CA cells implanted in a mouse; test: In vivo xenograft study, AN3CA; details: Nu/Nu mice, intravenous
Method: as §1

[3] = system: HCC1806 cells (CD138/FGFR3 positive cell line); test: In vitro toxicity assay, HCC1806; format: cell-based
[4] = system: CHO cells expressing human FGFR3c; details: FIG. 17C
OE19 cells = test: In vitro toxicity assay, OE19; format: cell-based
[5] = system: ARH-77 cells (negative control cell line); test: Cytotoxicity assay, ARH-77; format: cell-based; details: 5-day cytotoxicity assay, N=3
Method: (§2) A 5-day cytotoxicity assay was carried out (N=3) using the ‘high CD138’ expressing cell line (KMS 11), ‘medium CD138’ cell line (RT112), and negative control cell line (ARH77).

MHHES-1 cells = test: In vitro toxicity assay, MHHES-1; format: cell-based
HEC59 cells = test: In vitro toxicity assay, HEC59; format: cell-based
untransfected CHO cells = test: In vitro cytotoxicity, untransfected CHO cells; format: cell-based, Chinese Hamster; details: at concentrations less than 10000 pM, FIG. 17A
[6] = system: CHO cells expressing human FGFR3b; details: FIG. 17B
[7] = system: RT112 cells (medium CD138 cell line); test: Cytotoxicity assay, RT112; format: cell-based
Method: as §2

[8] = system: KMS-11 cells (high CD138 expressing cell line); test: Cytotoxicity assay, KMS-11; format: cell-based
Method: as §2

[9] = system: AN3CA cells (CD138/FGFR3 positive cell line); test: In vitro toxicity assay, AN3CA; format: cell-based

B1: hF6-S119C-HN-G7-II (conjugate)
heavy: GVTLFVALYDYEVYGPTPMLSFHKGEKFQILKGGSGPYWEARSLTTGETGLIPSNYVAPVDSIQGGGGSGGGGSGGGGSQVQLVQSGAEVVKPGASVKLSCKASGYTFTSYYLYWVKKAPGQGLDWIGEIYPRSGGTNINEKFLSRVTLTADTSTSTAYLELSSLTSEDTAVYYCTRSLLYWGQGTTLTVSSACTKGPSVFPLAPSSKSTSGGTAALGCLVKDYFPEPVTVSWNSGALTSGVHTFPAVLQSSGLYSLSSVVTVPSSSLGTQTYICNVNHKPSNTKVDKKV[letters of human IgG1 Fc left out]
light: DVVMTQTPLSLSVTPGQPASISCKSSQSLLASDGKTYLNWLLQRPGQSPKRLIYLVSKLDSGVPNRFSGSGSGTDFTLQISRVEAEDVGLYYCWQGAHFPFTFGSGTKLEIKRTVAAPSVFIFPPSDEQLKSGTASVVCLLNNFYPREAKVQWKVDNALQSGNSQESVTEQDSKDSTYSLSSTLTLSKADYEKHKVYACEVTHQGLSSPVTKSFNRGEC
[1]; 0.5 mg/kg
  % T/C: 8.3%
[1]; 1 mg/kg
  % T/C: 5.1%
8505C cells
  % cell killing: 96.1%
  EC50: 559 pM
[2]; 0.5 mg/kg
  % T/C: 44.6%
[2]; 1 mg/kg
  % T/C: 22.5%
[3]
  % cell killing: 95.9%
  EC50: 3810 pM
[4]
  cytotoxicity to CHO cells expressing human FGFR3c: specific cytotoxicity
OE19 cells
  % cell killing: 70.3%
  EC50: 554 pM
[5]
  ARH-77 % max kill: 98.1%
  IC50: 3300 pM
MHHES-1 cells
  % cell killing: 99.3%
  EC50: 1370 pM
HEC59 cells
  % cell killing: 91.7%
  EC50: 3640 pM
Untransfected CHO cells
  killing of untransfected CHO cells: did not demonstrate specific killing
[6]
  cytotoxicity to CHO cells expressing human FGFR3b: specific cytotoxicity
[7]; 5-day cytotoxicity assay, N=3
  IC50: 35.3 pM
  RT112 % max kill: 99.7%
[7]; RT-112, Table 31
  % cell killing: 99.7%
  EC50: 23.4 pM
[8]; 5-day cytotoxicity assay, N=3
  IC50: 27.9 pM
  KMS-11 % max kill: 99.6%
[8]; KMS-11, Table 31
  % cell killing: 99.6%
  EC50: 113 pM
[9]
  % cell killing: 97.3%
  EC50: 936 pM
